Assay results taken from the supplement of paper PMC12217912.
The list shows a part of the results. The full chains were built here from the parent and the listed change. Inactive controls read about 0.05.

B1: TEV protease; numbered along this chain (parent)
chain: MGESLFKGPRDYNPISSSICHLTNESDGHTTSLYGIGFGPFIITNKHLFRRNNGTLVVQSLHGVFKVKDTTTLQQHLVDGRDMIIIRMPKDFPPFPQKLKFREPQREERICLVTTNFQTKSMSSMVSDTSCTFPSGDGIFWKHWIQTKDGQCGSPLVSTRDGFIVGIHSASNFTNTNNYFTSVPKNFMELLTNQEAQQWVSGWRLNADSVLWGGHKVFMVKPEEPFQPVKEATQL

Variants of: B1
Assay: raw area under fraction-flipped curve 0-4 h after induction (AUC4h, not background-subtracted), DNA-recorder readout of cleavage of the substrate (dimensionless); higher = more cleavage of the substrate by the protease variant
Conditions: temperature: 34 °C; time window: 0-4 h after rhamnose induction
Protocol: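 In vivo DNA recorder in E. coli TOP10(DE3) ΔrhaA at 34 °C. Each TEVp single-site mutant (parent TEVp 0) is paired with a single-site variant of the 7-mer TEVs (canonical ENLYFQ|S). The substrate sits between flexible linkers in a Bxb1-sfGFP-TEVs-SsrA fusion, so cleavage stabilises Bxb1 and speeds flipping of a recombination array, read by NGS. The value is the raw area under the fraction-flipped curve over 0-4 h after rhamnose induction (AUC4h), with ≥20 reads per time point. It is not background-subtracted; inactive controls average about 0.047.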
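Further: Bxb1 expression induced with 0.2% (w/v) L-rhamnose at OD600 near 0.5, cultures sampled hourly, flipped fraction per protease–substrate barcode pair counted by paired-end Illumina sequencing.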

Row | Variant | area with substrate ENLYCQS | area with substrate ENLYDQS | area with substrate ENLYGQS | area with substrate ENLYHQS | area with substrate ENLYMQS | area with substrate ENLYNQS | area with substrate ENLYPQS | area with substrate ENLYQQS | area with substrate ENLYRQS | area with substrate ENLYSQS | area with substrate ENLYTQS | area with substrate ENLYVQS | area with substrate ENLYWQS | area with substrate ENLYYQS | area with substrate ENLYAQS | area with substrate ENLYEQS | area with substrate ENLYIQS | area with substrate ENLYKQS | area with substrate ENLYLQS
1 | R106E | 0.0847 | 0.0728 | 0.0712 | 0.0769 | 0.082 | 0.0743 | 0.076 | 0.0651 | 0.046 | 0.103 | 0.0538 | 0.114 | 0.084 | 0.0646 |  |  |  |  | 
2 | M219W | 0.081 | 0.0517 | 0.0679 | 0.0547 | 0.0932 | 0.0601 | 0.0683 | 0.0611 | 0.0516 |  |  |  | 0.084 | 0.0728 | 0.0531 | 0.0642 | 0.0809 | 0.0653 | 0.0773
3 | P14E | 0.082 | 0.0673 | 0.0671 | 0.0809 | 0.0855 | 0.0466 | 0.0552 | 0.0463 | 0.0587 |  | 0.0785 | 0.121 | 0.0772 |  |  | 0.0551 |  | 0.0331 | 0.0792
4 | N13M | 0.0892 | 0.0567 | 0.0668 |  | 0.115 |  | 0.065 | 0.0483 | 0.0588 | 0.0697 | 0.0915 |  | 0.0895 |  |  | 0.0634 | 0.132 | 0.0499 | 0.0726
5 | N13H | 0.106 | 0.0534 | 0.0689 | 0.0662 | 0.0994 | 0.0726 | 0.0834 |  | 0.0491 | 0.0786 | 0.0787 | 0.168 | 0.0699 |  |  | 0.0665 | 0.14 | 0.21 | 0.105
6 | L205H | 0.0801 |  | 0.0887 | 0.0847 | 0.0536 |  |  |  |  |  |  |  | 0.0654 | 0.0671 |  |  | 0.0519 | 0.0466 | 
7 | R204V | 0.112 | 0.0793 | 0.0626 | 0.0708 | 0.0915 | 0.0657 | 0.0983 | 0.0541 | 0.0493 | 0.0845 | 0.0776 | 0.157 | 0.0959 | 0.0778 |  | 0.0555 |  | 0.0481 | 0.0738
8 | Q234S | 0.0971 | 0.0595 | 0.0637 | 0.0858 | 0.0814 | 0.0747 | 0.0778 | 0.0621 |  | 0.0674 | 0.0792 | 0.115 | 0.0749 |  |  | 0.0654 | 0.109 | 0.064 | 
9 | G136C | 0.0924 | 0.0626 | 0.0585 | 0.0648 | 0.0874 | 0.0731 | 0.0775 | 0.069 | 0.0634 | 0.081 | 0.0732 | 0.131 | 0.0776 |  |  | 0.0808 | 0.115 | 0.0649 | 
10 | H21V | 0.0801 | 0.0608 |  | 0.0732 | 0.0742 | 0.0648 | 0.0544 | 0.0613 | 0.0656 | 0.0749 | 0.0877 |  | 0.0797 | 0.0671 |  | 0.0578 | 0.127 | 0.0441 | 0.0891
11 | L22C | 0.0919 | 0.07 | 0.0531 | 0.0693 | 0.0881 |  | 0.0785 | 0.0646 | 0.0623 | 0.0724 | 0.0744 |  | 0.0619 | 0.0652 |  | 0.0655 | 0.0855 | 0.0609 | 
12 | T132C | 0.129 |  | 0.0671 | 0.0753 |  | 0.0701 | 0.0785 |  | 0.0844 |  | 0.0942 | 0.119 | 0.0631 |  |  | 0.058 | 0.108 | 0.0745 | 
13 | K185C | 0.0891 |  | 0.104 | 0.0741 |  | 0.0697 | 0.0813 | 0.0607 |  | 0.0839 | 0.0748 | 0.108 |  | 0.0627 |  | 0.0695 |  | 0.0616 | 
14 | T147F | 0.0514 |  |  | 0.0371 | 0.0637 | 0.0609 | 0.0642 |  |  | 0.0622 |  | 0.0597 | 0.0488 | 0.0308 |  |  | 0.052 |  | 0.0534
15 | K100Y | 0.0883 | 0.0587 |  |  | 0.0777 | 0.0552 | 0.0775 |  |  |  | 0.0884 | 0.11 | 0.113 | 0.0639 |  | 0.0688 | 0.0977 |  | 
16 | G63R | 0.0901 |  |  |  | 0.0589 | 0.0705 | 0.0571 | 0.0696 |  |  | 0.053 | 0.0985 | 0.0793 |  |  | 0.0672 | 0.106 | 0.0723 | 
17 | N116Y | 0.0868 |  | 0.0597 | 0.0666 |  | 0.07 |  |  |  |  | 0.0851 |  | 0.0654 |  |  |  | 0.134 | 0.0941 | 
18 | V183A | 0.0726 | 0.049 | 0.0604 | 0.0704 | 0.0734 | 0.0545 | 0.0559 | 0.0848 | 0.0568 |  | 0.0472 | 0.0858 | 0.078 | 0.0715 |  | 0.0828 | 0.1 | 0.0578 | 
19 | P184F | 0.0755 | 0.0562 | 0.0628 | 0.0652 |  |  | 0.0612 | 0.049 |  | 0.0886 |  | 0.0886 | 0.0543 |  |  |  | 0.0939 | 0.0684 | 
20 | D137F | 0.0881 | 0.0597 | 0.0592 | 0.0602 | 0.0647 |  | 0.0701 | 0.0637 | 0.0689 | 0.066 | 0.0651 |  |  |  |  | 0.056 | 0.0954 | 0.0521 | 
21 | F133L | 0.0916 | 0.0553 | 0.0834 | 0.0519 |  |  | 0.0788 |  | 0.0481 |  |  |  |  |  |  | 0.071 | 0.213 | 0.0494 | 0.0912
22 | R50C | 0.088 | 0.0621 | 0.0662 | 0.0891 |  |  | 0.0771 | 0.0687 | 0.057 | 0.0741 |  | 0.13 | 0.0617 |  |  |  | 0.138 | 0.0672 | 
23 | R87H | 0.0927 | 0.0356 | 0.0596 | 0.0859 | 0.0755 | 0.0652 | 0.0644 |  |  | 0.0703 |  | 0.103 | 0.0899 | 0.0706 | 0.079 | 0.0805 |  | 0.0478 | 
24 | W203V | 0.0779 | 0.0638 | 0.0455 | 0.0564 |  | 0.0641 | 0.0533 | 0.0597 | 0.0588 | 0.0376 |  | 0.0848 | 0.0614 | 0.0548 |  | 0.0616 | 0.0627 | 0.0578 | 0.0767
25 | L33H | 0.0292 | 0.0599 | 0.0648 | 0.066 | 0.0577 | 0.0554 | 0.0584 | 0.0341 | 0.0644 | 0.0645 | 0.0352 | 0.0647 | 0.0722 | 0.0691 |  | 0.072 | 0.0649 | 0.0552 | 
26 | G54K |  | 0.0588 | 0.0526 |  |  | 0.0589 | 0.0418 | 0.0794 |  | 0.0652 |  |  | 0.0497 |  | 0.0476 | 0.0502 |  | 0.0751 | 
